According to PubChem BioAssay AID2675 (National Center for Advancing Translational Sciences (NCATS), 2010):
Out of some 280,000 compounds screened, about 100 (0.036%) were called active. Inconclusive results, whose numbers are uncertain, are shown with a selection of clear calls. Calls come from the whole dose curve; as a rule, active = well fitted inhibition curve with a large enough effect in the signal ratio, with a control signal flat (not every such curve was filed as active); inconclusive = small, poorly fitted or top-dose-only effect, or effect the other way, or a change in a side signal; inactive = no such curve, though single readings can be large or run the other way; the % refers to the signal ratio. A potency beside an inconclusive call is a rough fit, not a confirmed value. “Side channel” marks fits to a control or component signal instead of the main read-out.

Each compound was assayed against Muscleblind-like protein 1 (Homo sapiens) (UniProt Q9NR56) (assay: qHTS Assay for Inhibitors of MBNL1-poly(CUG) RNA binding). Conditions: TR-FRET MBNL1-His/biotin-(CUG)12 binding, 665/545 ratio; series mostly up to 57.5 µM.
Method in brief: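 Ratiometric TR-FRET (665 over 545 nm, excitation 340 nm) tracks disruption of MBNL1-His/biotin-(CUG)12 complex after 60 min at room temperature, with compounds at 92 nM to 58 uM final.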
Potency is the fitted concentration of half-maximal effect; tags give direction and shape of the fitted curve or compound fluorescence and quenching.

UniProt Q9NR56, sequence (Q9NR56 whole entry, looked up): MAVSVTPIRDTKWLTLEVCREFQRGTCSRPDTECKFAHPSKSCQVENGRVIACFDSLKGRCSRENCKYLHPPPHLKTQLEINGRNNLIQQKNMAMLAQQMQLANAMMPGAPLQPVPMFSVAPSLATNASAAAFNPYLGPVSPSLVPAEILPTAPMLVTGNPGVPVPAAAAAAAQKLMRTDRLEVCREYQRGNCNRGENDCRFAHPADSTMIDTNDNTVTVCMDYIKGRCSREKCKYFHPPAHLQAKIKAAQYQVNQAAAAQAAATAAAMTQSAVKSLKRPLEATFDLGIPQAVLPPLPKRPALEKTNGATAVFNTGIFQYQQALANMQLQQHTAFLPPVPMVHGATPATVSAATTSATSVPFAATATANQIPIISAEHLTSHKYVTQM

SMILES	Potency
COc1ccc2cc(C(=O)NCc3ccco3)c(=O)oc2c1	inconclusive: 5.62 µM [quencher, side channel, partial curve]
CCCCSc1nc(C)[nH]c1[N+](=O)[O-]	inconclusive: 7.08 µM [quencher, side channel, full curve]
COc1ccc2[nH]c(=O)c(CNc3ccc(C)c(C)c3)cc2c1	inconclusive: 12.6 µM [quencher, side channel, partial curve]
COc1ccc(CNC(=O)C2CCCN(c3nccc(C)n3)C2)cc1 (stereo unspecified)	inconclusive: 79.4 µM [inhibitor, single point]
CCC(C)(C)n1nnnc1C(c1cc2ccc(OC)cc2[nH]c1=O)N1CCCCC1 (stereo unspecified)	inactive
Cc1sc2nc3ccc(N4CCCC4)nn3c(=O)c2c1C	inconclusive: 15.8 µM [quencher, side channel, partial curve]
CC1Cn2c(nnc2-c2cc3ccccc3cc2O)S1 (stereo unspecified)	inconclusive: 14.1 µM [quencher, side channel, single point]
O=c1cc(CN2CCN(Cc3ccccc3)CC2)c2cc3c(cc2o1)CCC3	inactive
COc1ccc(C)cc1S(=O)(=O)N1CCN(Cc2ccccc2)CC1	inconclusive: 0.126 µM [quencher, side channel, full curve, poor fit]
Cc1ccc(/C(O)=C2/C(=O)C(=O)N(c3ccccn3)C2c2cccc([N+](=O)[O-])c2)cc1 (stereo unspecified)	inconclusive: 20 µM [quencher, side channel, partial curve, poor fit]
O=C1CCCC2=C1C(c1ccc(Cl)cc1)C1C(=O)c3ccccc3C1=N2 (stereo unspecified)	inconclusive: 17.8 µM [quencher, side channel, partial curve]
CN(CCC#N)C(=O)COC(=O)/C=C/c1ccc2c(c1)OCO2	inconclusive: 25.1 µM [quencher, side channel, partial curve]
C1COCCNCCOCCOCCN1	inactive
COc1ccc(CNC(=O)/C(C#N)=C2\N=C(NC(=O)c3cccs3)c3ccccc32)cc1	inconclusive: 28.2 µM [quencher, side channel, partial curve]
COc1ccc(NC(=O)CCNS(=O)(=O)c2cccc3nsnc23)cc1	inconclusive: 15.8 µM [quencher, side channel, partial curve]
CC1=C(C(=O)NC2CCCc3c2cnn3-c2cccc(C)c2C)OCCO1 (stereo unspecified)	inactive
CCc1cc2c(=O)n(-c3ccc(C)cc3)cnc2s1	inconclusive: 39.8 µM [inhibitor, single point]
O=C(c1ccc2c(c1)CCN2S(=O)(=O)c1ccccc1)N1CCN(c2ccc(F)cc2)CC1	inactive
COC(=O)Cn1c(=NC(=O)c2ccc(S(=O)(=O)N3CCc4ccccc4C3)cc2)sc2cc(OC)ccc21	inactive
O=[N+]([O-])c1ccc(OCC(O)CN(CCO)CCO)cc1 (stereo unspecified)	inconclusive: 39.8 µM [quencher, single point]
CCOC(=O)C1=C(C)OC(N)=C(C#N)C1c1ccccc1 (stereo unspecified)	inconclusive: 31.6 µM [quencher, side channel, single point]

SMILES	Potency
COc1cc(OC)cc(C(=O)N2CCN(C3CCN(Cc4ccccc4)CC3)CC2)c1	inactive
COc1ccccc1NS(=O)(=O)c1ccc(NN=C2CCCCC2)c([N+](=O)[O-])c1	inconclusive: 25.1 µM [quencher, side channel, partial curve]
CN(CC1CCCO1)S(=O)(=O)c1ccc(C(=O)Nc2ccc([N+](=O)[O-])cc2)cc1 (stereo unspecified)	inconclusive: 14.1 µM [quencher, partial curve]
CN(C)S(=O)(=O)c1ccc2c(c1)C(=NNC(N)=O)c1cc(S(=O)(=O)N(C)C)ccc1-2	inconclusive: 2.51 µM [quencher, side channel, full curve, poor fit]
Cc1cccc(-n2ncc(C#N)c2N)c1	inactive
COc1ccc(/C=N/NC(=O)c2ccco2)cc1Cn1nc(C)cc1C	inconclusive: 39.8 µM [quencher, single point]
Cc1ccc(C(=O)NC(=S)NNC(=O)c2ccccc2[N+](=O)[O-])cc1	inactive
CC1C(=O)CC(c2ccc([N+](=O)[O-])cc2)NC1c1ccc([N+](=O)[O-])cc1 (stereo unspecified)	inconclusive: 31.6 µM [quencher, side channel, single point]
Cc1ccc(NC(=O)COc2cccc(-n3cnnn3)c2)cc1[N+](=O)[O-]	inconclusive: 17.8 µM [quencher, side channel, partial curve]
CCOC(=O)C1CCN(c2ccc(-c3cccs3)nn2)CC1	inconclusive: 15.8 µM [quencher, side channel, partial curve]
CC(C)(C)NC(=O)CCN(/N=C/c1ccccc1)C1=NS(=O)(=O)c2ccccc21	inactive
O=C(CN1C(=O)CC(c2ccco2)Sc2ccccc21)NC1CCCCC1 (stereo unspecified)	inactive
CCOc1ccc2nc(NC(=O)c3ccc(OCC4CCCO4)cc3)sc2c1 (stereo unspecified)	inconclusive: 28.2 µM [fluorescent, side channel, single point]
CCN(CC)S(=O)(=O)c1ccc(C)c(NC(=S)NNC(=O)C2CC2)c1	inactive
COc1ccc(-n2ccnc(SCC(=O)NCc3ccccc3Cl)c2=O)cc1	inconclusive: 15.8 µM [quencher, side channel, partial curve]
FC(F)(F)c1nc(=S)c2ccccc2[nH]1	inactive
COc1ccc(Nc2nc(NCCCN3CCOCC3)nc(N)c2[N+](=O)[O-])cc1	inconclusive: 15.8 µM [quencher, side channel, partial curve]
CC(C)CS(=O)(=O)C1=NN2C(=N)/C(=C\c3ccc(OC(=O)c4ccco4)cc3)C(=O)N=C2S1	inactive
CCN(C(=O)COC(=O)/C=C/c1ccccc1[N+](=O)[O-])C1CCS(=O)(=O)C1 (stereo unspecified)	inconclusive: 14.1 µM [quencher, side channel, partial curve]
COc1cc(NS(=O)(=O)c2ccc(NC(=S)NC(=O)c3sc4ccccc4c3Cl)cc2)nc(OC)n1	inactive
